Screen size: about 350,000 compounds; about 700 (0.2%) were called active. Calls follow the shape of the dose curve; as a rule, active = well fitted inhibition curve with a large enough effect; inconclusive = small, poorly fitted or top-dose-only effect; inactive = flat fitted curve, though single readings scatter. Only a part is listed here, and it is no random draw.

This is an account of results in PubChem BioAssay AID2528 (National Center for Advancing Translational Sciences (NCATS), 2010).
Potency is read from the fitted curve at half-maximal effect.

The target in the assay is RecQ-like DNA helicase BLM (Homo sapiens) (UniProt P54132). Put plainly: qHTS Assay for Inhibitors of Bloom's syndrome helicase (BLM). Also: nearly all actives have a fitted effect of over 35% in size.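 As to activity change, negative = inhibition: plate controls were vehicle for no effect and no enzyme for full effect.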 The following applies: recombinant BLM DNA unwinding, fluorescence dequenching; series mostly up to 56.1 µM; activity change, negative = inhibition: at the top concentration. For orientation: qHTS replaces the single test concentration by a dilution series.
Chain of UniProt P54132 (P54132 whole entry, looked up): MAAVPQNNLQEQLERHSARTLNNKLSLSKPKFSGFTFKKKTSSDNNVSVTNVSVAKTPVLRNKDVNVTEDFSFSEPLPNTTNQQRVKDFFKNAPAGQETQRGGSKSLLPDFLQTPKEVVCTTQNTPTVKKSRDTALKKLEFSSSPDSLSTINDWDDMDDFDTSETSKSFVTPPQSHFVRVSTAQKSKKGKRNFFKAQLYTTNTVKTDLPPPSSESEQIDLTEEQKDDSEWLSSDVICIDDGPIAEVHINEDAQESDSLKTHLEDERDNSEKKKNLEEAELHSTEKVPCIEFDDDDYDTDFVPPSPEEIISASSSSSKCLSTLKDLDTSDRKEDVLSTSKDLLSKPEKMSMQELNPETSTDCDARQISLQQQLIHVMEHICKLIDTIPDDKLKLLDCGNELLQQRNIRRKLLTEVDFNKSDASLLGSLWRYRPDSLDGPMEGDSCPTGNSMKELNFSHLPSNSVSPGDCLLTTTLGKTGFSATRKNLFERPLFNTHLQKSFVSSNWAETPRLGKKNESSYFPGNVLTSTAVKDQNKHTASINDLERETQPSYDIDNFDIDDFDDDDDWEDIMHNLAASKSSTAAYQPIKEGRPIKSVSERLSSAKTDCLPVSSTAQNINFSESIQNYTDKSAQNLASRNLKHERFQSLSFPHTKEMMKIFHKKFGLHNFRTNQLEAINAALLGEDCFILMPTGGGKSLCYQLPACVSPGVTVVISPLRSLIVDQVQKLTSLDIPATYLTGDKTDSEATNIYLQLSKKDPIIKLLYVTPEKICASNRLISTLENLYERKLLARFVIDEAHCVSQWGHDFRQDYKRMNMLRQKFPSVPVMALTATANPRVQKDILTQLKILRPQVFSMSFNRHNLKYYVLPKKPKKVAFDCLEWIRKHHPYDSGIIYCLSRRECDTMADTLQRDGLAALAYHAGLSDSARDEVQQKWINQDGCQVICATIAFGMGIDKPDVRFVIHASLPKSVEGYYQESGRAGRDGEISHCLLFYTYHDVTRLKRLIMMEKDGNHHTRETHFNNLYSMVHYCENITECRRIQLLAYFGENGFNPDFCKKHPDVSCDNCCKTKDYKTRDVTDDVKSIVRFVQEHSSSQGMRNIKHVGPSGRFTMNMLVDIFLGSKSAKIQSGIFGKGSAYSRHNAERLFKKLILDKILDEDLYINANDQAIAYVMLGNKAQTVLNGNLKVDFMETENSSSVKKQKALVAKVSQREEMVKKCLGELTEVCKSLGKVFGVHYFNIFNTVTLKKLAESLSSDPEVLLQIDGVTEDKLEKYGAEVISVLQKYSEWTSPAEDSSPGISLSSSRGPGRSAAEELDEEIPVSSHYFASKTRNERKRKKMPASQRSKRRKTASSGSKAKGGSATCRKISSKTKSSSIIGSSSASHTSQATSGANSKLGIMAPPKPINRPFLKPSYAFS
For the compound `C/C(=C/CCC(C)[C@H]1CC[C@@]2(C)C3=C(CC[C@]12C)[C@@]1(C)CCC(=O)C(C)(C)[C@@H]1CC3)C(=O)O` (stereo partly drawn), the Potency was active: 25.1 µM.
`C[C@H](NC(C)(C)C)C(=O)c1cccc(Cl)c1`: the “activity change, negative = inhibition” value was inactive: 5.65% [at 21.4 µM].
On the same count and under the same terms, the same measure for `CC(C)(O)[C@@H]1C2OC(=O)[C@@H]1[C@]1(O)C[C@H]3O[C@]34C(=O)O[C@H]2[C@]14C`: inactive: -4.57%.
The same measure, in the same setting: for `C[C@]12CCC(=O)C=C1CC[C@@H]1C2CC[C@]2(C)C(=O)CCC12` (stereo partly drawn) the value was inactive: -4.63%; for `CN[C@H](C)[C@H](O)c1ccccc1`, inactive: -5.23%.
For `CC(=O)NCCc1c[nH]c2ccccc12`, the Potency result was “inactive”.
With `CC(C)c1ccc(N2C(=O)NC(=O)/C(=C/C=C/c3ccco3)C2=O)cc1`, the “activity change, negative = inhibition” value was inactive: -21.4%.
The same measure, in the same setting: for `C[C@@H](N)[C@@H](O)c1ccc(O)c(O)c1` the value was inactive: 0.868%.
Regarding `O=c1[nH]c2ccccc2n1C1CCN(CCCC(c2ccc(F)cc2)c2ccc(F)cc2)CC1`, the Potency result is “inactive”.
The same measure, in the same setting: the same measure for `CCCCC/C=C\C/C=C\C/C=C\C/C=C\CCCC(=O)O`: “inactive”.
On to `CC12C=CC(=O)C=C1CCC1C2=CCC2(C)C1CC[C@@H]2C(=O)CN1CCN(c2cc(N3CCCC3)nc(N3CCCC3)n2)CC1` (stereo partly drawn), for which the “activity change, negative = inhibition” value was inactive: -14.6%.
Still for that read-out and setting: for `CC(C)C[C@H]1C(=O)N2CCC[C@H]2[C@]2(O)O[C@](NC(=O)[C@@H]3C=C4c5cccc6[nH]c(Br)c(c56)CC4N(C)C3)(C(C)C)C(=O)N12` (stereo partly drawn) the value was inactive: -18.5%.
For the compound `O[C@H]1CCCC[C@H]1N1CCC(c2ccccc2)CC1`, the Potency entry was “inactive”.
Regarding `CCNC(=O)[C@@H]1O[C@@H](n2cnc3c(N)ncnc32)[C@H](O)[C@H]1O`, the “activity change, negative = inhibition” value was inactive: -0.191%.
Consider `CC[n+]1c(-c2ccccc2)c2cc(N)ccc2c2ccc(N)cc21`, for which the “activity change, negative = inhibition” value is inactive: -7.19%.
As to `N[C@H](CP(=O)(O)O)C(=O)O`, the “activity change, negative = inhibition” value is inactive: -1.57%.
Consider `CP(=O)(O)CCCN`, for which the Potency entry was “inactive”.
Still for that read-out and setting: the same measure for `Cc1cccc(OCCn2cccc2/C=C2/C(=O)NC(=O)N(Cc3ccco3)C2=O)c1`: active: 25.1 µM.
For the compound `O=C(O)CNC(=O)[C@@H](CS)Cc1ccccc1`, the “activity change, negative = inhibition” value was inactive: -1.54% [at 21.4 µM].
Consider `C[C@H]1O[C@H]1P(=O)(O)O`, for which the Potency result is “inactive”.
Turning to `N[C@H]1C[C@H]1c1ccccc1`, the “activity change, negative = inhibition” value is inactive: 3.91% [at 21.4 µM].
On to `O=c1[nH]cnc2[nH]ncc12`, for which the Potency entry was “inactive”.
Take `CC(C)(O)C1C2OC(=O)C1C1(O)CC3OC34C(=O)OC2C14C` (stereo not drawn): the “activity change, negative = inhibition” value is inactive: 1.29%.
The same measure, in the same setting: for `Cc1cc(O)c2c(c1)C(=O)c1cc(O)cc(O)c1C2=O` the value was inactive: -19%.
Regarding `CNC(=O)Oc1ccc2c(c1)[C@]1(C)CCN(C)[C@@H]1N2C`, the Potency entry was “inactive”.
With `CC(=O)N1CCN(c2ccc(OC[C@@H]3CO[C@@](Cn4ccnc4)(c4ccc(Cl)cc4Cl)O3)cc2)CC1`, the “activity change, negative = inhibition” value was inactive: 1.83%.
`O=c1c2ccccc2nc(/C=C/c2ccc(O)cc2)n1-c1cccc(O)c1`: the Potency was active: 25.1 µM.
Still for that read-out and setting: for `CCC(CO)NC(=O)C1C=C2c3cccc4[nH]cc(c34)CC2N(C)C1` (stereo not drawn) the value was “inactive”.
Regarding `N[C@@H](Cn1cc(I)c(=O)[nH]c1=O)C(=O)O`, the “activity change, negative = inhibition” value was inactive: 0.248%.
`O=c1c(O)c(-c2ccc(O)c(O)c2)oc2cc(O)cc(O)c12`: the Potency entry was “inactive”.
As for `CC(C)NC[C@H](O)COc1cccc2[nH]ccc12`, the Potency result was “inactive”.
For `CNCC(O)c1ccc(O)cc1` (stereo not drawn), the “activity change, negative = inhibition” value is inactive: 1.08%.
With `CC(=O)C1CC[C@H]2C3CC[C@@H]4CC(O)CC[C@@]4(C)C3CC[C@]12C` (stereo partly drawn), the “activity change, negative = inhibition” value was inactive: -6.83%.
On to `c1ccc(CCCN2CCN(CCOC(c3ccccc3)c3ccccc3)CC2)cc1`, for which the “activity change, negative = inhibition” value is inactive: -4.74%.
Regarding `CC(C)C[C@H]1C(=O)N2CCC[C@H]2[C@]2(O)O[C@](NC(=O)[C@@H]3C=C4c5cccc6[nH]c(Br)c(c56)C[C@H]4N(C)C3)(C(C)C)C(=O)N12`, the “activity change, negative = inhibition” value was inactive: -10.5%.
Take `CCN(CC)C(=O)N[C@@H]1C[C@H]2c3cccc4[nH]cc(c34)C[C@@H]2N(C)C1`: the Potency entry is “inactive”.
Consider `Cc1cccc2c3c(ccc12)C1=C(C(=O)C3=O)[C@@H](C)CO1`, for which the “activity change, negative = inhibition” value is inactive: -9.54%.
As for `CC(N)C(O)c1ccc(O)c(O)c1` (stereo not drawn), the Potency result was “inactive”.
As to `C[N+]1(C)[C@@H]2CC(OC(=O)[C@@H](CO)c3ccccc3)C[C@@H]1[C@H]1O[C@H]12` (stereo partly drawn), the “activity change, negative = inhibition” value is inactive: -1.08%.
Consider `C=C(C)C1Cc2c(ccc3c2OC2COc4cc(OC)c(OC)cc4C2C3=O)O1` (stereo not drawn), for which the “activity change, negative = inhibition” value is inactive: -13.3%.
With `CN1C[C@H](C(=O)N[C@@]2(C)O[C@@]3(O)C4CCCN4C(=O)C(Cc4ccccc4)N3C2=O)C[C@H]2c3cccc4[nH]cc(c34)C[C@H]21` (stereo partly drawn), the “activity change, negative = inhibition” value was inactive: -1.4%.
With `Brc1c(NC2=NCCN2)ccc2nccnc12`, the Potency entry is “inactive”.
For the compound `CC(C)N(CC[C@@](C(N)=O)(c1ccccc1)c1ccccn1)C(C)C`, the “activity change, negative = inhibition” value was inactive: 2.55% [at 21.4 µM].
Consider `CNCCC(Oc1ccc(C(F)(F)F)cc1)c1ccccc1` (stereo not drawn), for which the Potency entry is “inactive”.
On to `CC(=O)c1c(O)c(C)c(O)c(Cc2c(O)c3c(c(C(=O)/C=C/c4ccccc4)c2O)OC(C)(C)C=C3)c1O`, for which the “activity change, negative = inhibition” value was inactive: -12.9%.
Turning to `NN=C(N)N`, the Potency entry is “inactive”.
`CC[C@H]1CN2CCc3cc(OC)c(OC)cc3[C@H]2C[C@@H]1C[C@@H]1NCCc2cc(OC)c(OC)cc21`: the “activity change, negative = inhibition” value was inactive: -6.36%.
As for `C[C@]12CCC(=O)C=C1CC[C@@H]1[C@@H]2CC[C@]2(C)C(=O)CC[C@@H]12`, the Potency result was “inactive”.
